In all, about 71,000 compounds went through this assay and about 1,800 (2.5%) were called active. The shares of active, inactive and inconclusive entries below differ from those in the screen. Calls follow the shape of the dose curve; as a rule, active = well fitted activation curve with a large enough effect in the signal ratio, with a control signal flat (not every such curve was filed as active); inconclusive = small, poorly fitted or top-dose-only effect, or effect the other way, or a change in a side signal; inactive = flat fitted curve, though single readings scatter; the % refers to the signal ratio. Where the call is inconclusive, the potency comes from a doubtful curve fit.
Test: Cell signaling CRE-BLA (Fsk stim); as to activity change, negative = inhibition: % of control where 0% means no effect
Details: CHO CRE-bla reporter (cAMP response element driving beta-lactamase), forskolin EC10, beta-lactamase ratio; activity change, negative = inhibition: at 38.2 µM (top of the series) unless noted
In short: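 Beta-lactamase reporter under a cAMP responsive element in CHO cells; compounds tested in titration series against EC10 NKH 477, 3 h at 37 °C. Read-out: CCF4 FRET ratio 460nm/530nm (excitation 405nm) giving %Activity, fitted to AC50.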
Potency is read from the fitted curve at half-maximal effect; tags tell the direction and shape of the fitted curve.

Structure (SMILES)	activity change, negative = inhibition	Potency
Cn1c(=O)c(-c2ccc(F)cc2)nc2cnc(Oc3ccccc3)nc21	inactive: -1.56%	–
COc1ccccc1NC(=O)CSc1ccc2nnc(-c3cccnc3)n2n1	–	inconclusive: 10 µM [rising, single point]
O=C(CN1CCN(S(=O)(=O)c2ccc(F)cc2)CC1)Nc1cc(C(F)(F)F)ccc1Cl	inconclusive: -10.8%	–
COc1ccccc1NC(=O)CCN1C(=O)C2CC=C(Cl)CC2C1=O (stereo not drawn)	inconclusive: -12.8%	–
Cn1nnc(NCc2cc(Br)ccc2OCc2cccs2)n1	inactive: -3.41%	–
Cc1nc2c(nnn2Cc2ccccc2)c(=O)n1-c1ccccc1	inconclusive: 17.5%	–
Clc1ccc2nc(SCc3nnc(-c4ccccc4)o3)[nH]c2c1	–	inconclusive: 10 µM [rising, single point]
CC1CN(c2nc(-c3ccccc3)nc3ccccc23)CC(C)O1 (stereo not drawn)	–	inconclusive: 1.58 µM [rising, partial curve]
CCCCCn1c(CNC(=O)c2cccs2)nc2ccccc21	inconclusive: -20.1%	–
C=CCn1c(SCCCc2ccccc2)nc2c1c(=O)[nH]c(=O)n2C	–	inconclusive: 3.16 µM [rising, partial curve]
NC(=O)c1ccc(NS(=O)(=O)c2ccccc2F)cc1	inactive: 4.87%	–
COc1ccc(-c2noc(-c3cccc(OC)c3OC)n2)cc1OC	–	active: 2.51 µM
CCOC(=O)c1c(NC(=O)c2cc(C3CC3)on2)sc2c1CCCC2	inactive: 1.84%	–
COC(=O)c1c(NC(=O)CSc2nnnn2-c2ccccc2)sc2c1CCC(C)C2 (stereo not drawn)	inconclusive: 21.5%	–
NC(=O)c1ccsc1NC(=O)C1CCCN1S(=O)(=O)c1ccc(Cl)cc1 (stereo not drawn)	–	inconclusive: 20 µM [falling, partial curve, poor fit]
O=C(C1CCCCC1)N1CCN(S(=O)(=O)c2ccc(Cl)cc2)CC1	inconclusive: -8.48%	–
N#Cc1cn(-c2ccccc2)nc1-c1cc2ccccc2oc1=O	inactive: 2.98%	–
CCCCOc1ccc(CN2CCCCC2)cc1	inactive: -0.796%	–
COC(=O)C1=C(N)Oc2cc(C)n(Cc3cccnc3)c(=O)c2C1c1cccc(OC)c1OC (stereo not drawn)	inconclusive: 2.11%	–
Cc1cc(C)cc(N(CC(=O)O)S(=O)(=O)c2cccnc2)c1	inactive: -12.2%	–
COC(=O)C1=C(C)Nc2c(c(=O)n(C)c(=O)n2C)C1c1cccs1 (stereo not drawn)	inactive: 12.5%	–

Structure (SMILES)	activity change, negative = inhibition	Potency
COc1ccc(C(c2c(O)ccc3ccccc23)N2CCOCC2)c(OC)c1 (stereo not drawn)	–	inconclusive: 2 µM [falling, partial curve]
CC(Oc1ccc(Cl)cc1Cl)c1nc(-c2ccc(NC(=O)c3cccnc3)cc2)no1 (stereo not drawn)	inconclusive: 1.44%	–
C=CCn1c(=O)n(CC=C)c(=O)n(CC=C)c1=O	inconclusive: 24.7%	–
Cc1nc(N2CCN(c3ccccc3)CC2)nc2c1C(=O)CCC2	inconclusive: -16.5%	–
CCSc1nc2c([nH]c3ccccc32)c(=O)n1C	inactive: 4.38%	–
O=C(CCN1CCc2ccccc2C1)Nc1ccccc1	inconclusive: -26.5% [at 7.6 µM]	–
CCOc1ccc2[nH]c(C)c(CN3CCOCC3)c(=O)c2c1	inactive: -1.34%	–
COCc1nnc(NC(=O)c2cc(Cl)ccc2OC)s1	–	inconclusive: 10 µM [rising, partial curve]
Cc1nnc(SCc2ccccc2F)n1NCc1cccs1	inactive: -6.92%	–
Cc1nn(-c2ccccc2)c2sc(C(=O)n3cccn3)cc12	–	inconclusive: 25.1 µM [rising, single point]
CC12CCC(C(=O)NC3CCCC3)(CC1=O)C2(C)C (stereo not drawn)	inconclusive: -1.53%	–
COc1ccc(S(=O)(=O)N2CCOCC2)cc1C(=O)Nc1cc(C)on1	inactive: 0.818%	–
O=C1C=C(NCc2ccccc2)C2(CCCCC2)O1	inactive: 10.9% [at 7.6 µM]	–
COc1cc(C2C(C#N)=C(N)Oc3n[nH]c(-c4ccccn4)c32)cc(OC)c1OC (stereo not drawn)	–	inconclusive: 25.1 µM [rising, single point]
O=C(CCC(=O)c1cccs1)OCc1nc2ccccc2s1	inconclusive: 2.16%	–
CCOC(=O)c1[nH]c(C)c(/C(O)=C2\C(=O)C(=O)N(CCN(C)C)C2c2ccncc2)c1C (stereo not drawn)	inactive: 7.49%	–
CCOC(=O)CSc1nc(C)c(C(=O)OCC)s1	inconclusive: -5.51%	–
COC(=O)[C@@H](NC(=O)N(C1CCCCC1)C1CCCCC1)C(C)C	inconclusive: 2.97%	–
O=S(=O)(c1ccccc1)N1CCC2(CC1)CN(C(c1ccccc1)c1ccccc1)C2	inactive: -10.5%	–
O=C(c1ccccc1)N(Cc1ccc2c(c1)OCO2)Cc1nc2ccccc2c(=O)[nH]1	inconclusive: 26.6%	–
Cn1c(=N)c(S(=O)(=O)c2ccc(F)cc2)cc2c(=O)n3ccccc3nc21	–	active: 1.58 µM

Structure (SMILES)	activity change, negative = inhibition	Potency
O=C(Nc1cccc2cccnc12)c1ccc(Br)o1	inconclusive: 25%	–
OC[C@@H]1CCC[C@H](n2cnc3c(=S)nc[nH]c32)O1	inactive: 15.5% [at 7.6 µM]	–
O=C(CCSc1nnc2ccccn12)Nc1ccc(F)cc1	inactive: 0.714%	–
c1ccc2[nH]c(NC3=NCCC3)nc2c1	inconclusive: 0.451%	–
N#Cc1cccc(NC(=O)N2CC3(CCN(C(=O)c4cc(C(F)(F)F)cc(C(F)(F)F)c4)CC3)C2)c1	inactive: -14.5%	–
COc1ccc2nc(NC(=O)Cn3cnc4c(=O)n(C)c(=O)n(C)c43)sc2c1	–	inconclusive: 10 µM [rising, partial curve]
Cc1c(O)c(CN2CCCC2)cc2c3c(c(=O)oc12)CCC3	–	inconclusive: 10 µM [rising, partial curve]
COC(=O)Cn1c(=O)cnc2ccccc21	inactive: 0.138%	–
CCOC(=O)Nc1ccc2c(c1)ncn2C1CCCCC1	–	inconclusive: 12.6 µM [rising, partial curve]
CC(=O)NC(CCS(C)(=O)=O)C(=O)Nc1cccc(C)c1C (stereo not drawn)	–	inconclusive: 15.8 µM [rising, single point]
c1csc(-c2cnc3n2CCCC3)c1	inactive: -6.39%	–
CCOC(=O)C1CCN(S(=O)(=O)c2ccc(-c3nc4ccccc4s3)s2)CC1	inactive: -7.74%	–
COc1ccccc1N1CCN(C[C@@H](C(=O)NC(C)(C)C)c2ccccc2)CC1	inconclusive: -26.9%	–
O=S(=O)(c1ccccc1)N1CCN(c2nnnn2-c2ccccc2)CC1	–	inconclusive: 3.98 µM [falling, single point]
CCOCCCNC(=O)C(NC(=O)c1cnccn1)c1ccc(OC)cc1 (stereo not drawn)	inconclusive: 9.08%	–
O=c1[nH]c2cc(Cl)ccc2c(O)c1-c1ccc(Oc2ccccc2)cc1	inactive: -15.6%	–
COc1ccc(OCCCC(=O)Nc2ccc3c(c2)OCCO3)cc1	inconclusive: -2.24% [at 7.6 µM]	–
O=C(c1cccc(F)c1)N1CCC2(CCN(Cc3cc(C(F)(F)F)cc(C(F)(F)F)c3)CC2)CC1	inactive: 4.12%	–
CCOc1ccc(CNC(=O)C2CCN(S(=O)(=O)CC)CC2)cc1OC	inconclusive: -18.9%	–
Cn1c(=O)c2c(nc(CN3CCN(c4ccccc4)CC3)n2CCCc2ccccc2)n(C)c1=O	inconclusive: 14.5%	–
O=C(Cn1cnc2ccccc2c1=O)NC1CCCc2ccccc21 (stereo not drawn)	inconclusive: -19.8%	–

Structure (SMILES)	activity change, negative = inhibition	Potency
Cc1ccc2[nH]c(=O)c3cc(C(=O)N(C)Cc4ccco4)sc3c2c1	–	active: 10 µM
CC1(C)CC(=O)C(C=NCCC2=CCCCC2)=C(O)C1	–	inconclusive: 0.0316 µM [rising, full curve, poor fit]
CCOc1ccc(CCNS(=O)(=O)c2cccc3nsnc23)cc1OCC	–	inconclusive: 6.31 µM [rising, partial curve]
O=c1[nH]c(CSc2nc3ccccc3o2)nc2c1cnn2-c1ccccc1	–	inconclusive: 3.16 µM [rising, single point]
CC(C)COC(=O)Cc1c(O)c2ccccc2[nH]c1=O	inactive: 4.47%	–
CCc1nnc(NC(=O)CSc2nc3c(cc2C#N)CCCC3)s1	inconclusive: 21.8%	–
COc1ccc(C2NC(=O)c3ccccc3O2)c(OC)c1OC (stereo not drawn)	inconclusive: -27.7%	–
Cc1ccc(N2CC(C(=O)Nc3nccs3)CC2=O)cc1 (stereo not drawn)	–	inconclusive: 15.8 µM [falling, single point]
COc1cccc(NC(=O)Cc2cn(C)c3ccccc23)c1	–	inconclusive: 25.1 µM [falling, single point]
CS(=O)(=O)N1CCN(C(=O)c2cc(-c3ccncc3)nc3ccc(Cl)cc23)CC1	inconclusive: 24.6%	–
COc1ccc(-n2c(=O)c(-c3ccc(Cl)cc3)nc3cnc(N(C)C)nc32)cc1	–	inconclusive: 0.794 µM [rising, full curve]
O=c1c(-c2cc(F)cc(F)c2)nc2cnc(Oc3ccccc3)nc2n1C[C@H]1CCCO1	–	inconclusive: 3.98 µM [rising, single point]
O=C(CN(c1ccc(F)cc1)S(=O)(=O)c1ccc2c(c1)OCCO2)Nc1ccc2c(c1)OCO2	inconclusive: -12.3%	–
CN(C)c1nc(Oc2ccc(C(=O)OCC(=O)Nc3ccccc3)cc2)nc(N(C)C)n1	inconclusive: -31.2% [at 7.6 µM]	–
Clc1ccc(C2Nc3ccccc3-n3cccc32)cc1 (stereo not drawn)	–	inconclusive: 10 µM [rising, partial curve]
COCCn1c(=O)c(-c2ccc(Cl)cc2)nc2cnc(Oc3ccccc3)nc21	inconclusive: 18.4%	–
Cc1ccc(-c2nc(-c3cccnc3)no2)c(C)c1	inactive: 21.7%	–
COCCN(CCOC)Cc1c(O)ccc2c3c(c(=O)oc12)CCC3	–	active: 12.6 µM
O=C(CCC1N=C2c3ccccc3N=C(SCc3ccc(Cl)cc3)N2C1=O)NCc1ccco1 (stereo not drawn)	–	inconclusive: 25.1 µM [rising, single point]
CC(=O)c1cccc(NC(=O)CCS(=O)(=O)c2cccc3nonc23)c1	inconclusive: -34.3%	–

Source: PubChem BioAssay AID662 (National Center for Advancing Translational Sciences (NCATS), 2007)
